Experimental data from the supplement of paper PMC11741623.
This is one part of the list. Interaction screen of human proteins with wild-type SARS-CoV-2 proteins by split-DHFR complementation in yeast, 1 µg/mL methotrexate. Value = fitness of the pair (three or more lineages) minus that of the viral protein without a human partner, on a scale set by negative (0) and fused positive (1) controls, mean of up to three cultures; higher = more likely to interact. Active = false discovery rate below 0.05 (one-sided t-test) in at least one culture. Nearly all pairs are not hits, and differences among them are mostly noise (correlation between cultures about 0.3); most hits were seen in one culture only. Human sequences are the Swiss-Prot entries looked up by gene name; the clone may be another isoform. NSP2 values were corrected by the authors for a growth advantage. Listed are human proteins with a hit and a random twelfth of the others.

Columns and labels:
Assay in all cases: yeast fitness gain over the viral ORF with no human partner (scaled fitness); higher = more likely to interact
SARS-CoV-2 NSP10 = target: SARS-CoV-2 NSP10
Procedure: (§1)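 Split mouse DHFR complementation in pooled diploid yeast: human ORFeome clones carry one fragment and viral ORFs the other; barcoded lineages compete in 1 µg/mL methotrexate and fitness is read by barcode sequencing in up to three cultures.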

SARS-CoV-2 NSP12 = target: SARS-CoV-2 NSP12
Procedure: as §1

SARS-CoV-2 NSP13 = target: SARS-CoV-2 NSP13
Procedure: as §1

SARS-CoV-2 NSP2 = target: SARS-CoV-2 NSP2
Procedure: as §1

SARS-CoV-2 ORF6 = target: SARS-CoV-2 ORF6
Procedure: as §1

SARS-CoV-2 ORF9B = target: SARS-CoV-2 ORF9B
Procedure: as §1

SARS-CoV-2 S = target: SARS-CoV-2 S
Procedure: as §1

SARS-CoV-2 NSP15 = target: SARS-CoV-2 NSP15
Procedure: as §1

SARS-CoV-2 NSP5 = target: SARS-CoV-2 NSP5
Procedure: as §1

SARS-CoV-2 NSP8 = target: SARS-CoV-2 NSP8
Procedure: as §1

SARS-CoV-2 ORF7A = target: SARS-CoV-2 ORF7A
Procedure: as §1

SARS-CoV-2 ORF8 = target: SARS-CoV-2 ORF8
Procedure: as §1

SARS-CoV-2 ORF3B = target: SARS-CoV-2 ORF3B
Procedure: as §1

SARS-CoV-2 ORF7B = target: SARS-CoV-2 ORF7B
Procedure: as §1

[1] = target: SARS-CoV-2 ORF9Bwu (the 73-codon ORF)
Procedure: as §1

SARS-CoV-2 NSP6 = target: SARS-CoV-2 NSP6
Procedure: as §1

SARS-CoV-2 NSP7 = target: SARS-CoV-2 NSP7
Procedure: as §1

SARS-CoV-2 ORF10 = target: SARS-CoV-2 ORF10
Procedure: as §1

Measured: yeast fitness gain

B1: SLC17A8, Q8NDX2 (protein)
chain: MPFKAFDTFKEKILKPGKEGVKNAVGDSLGILQRKIDGTTEEEDNIELNEEGRPVQTSRPSPPLCDCHCCGLPKRYIIAIMSGLGFCISFGIRCNLGVAIVEMVNNSTVYVDGKPEIQTAQFNWDPETVGLIHGSFFWGYIMTQIPGGFISNKFAANRVFGAAIFLTSTLNMFIPSAARVHYGCVMCVRILQGLVEGVTYPACHGMWSKWAPPLERSRLATTSFCGSYAGAVVAMPLAGVLVQYIGWSSVFYIYGMFGIIWYMFWLLQAYECPAAHPTISNEEKTYIETSIGEGANVVSLSKFSTPWKRFFTSLPVYAIIVANFCRSWTFYLLLISQPAYFEEVFGFAISKVGLLSAVPHMVMTIVVPIGGQLADYLRSRQILTTTAVRKIMNCGGFGMEATLLLVVGFSHTKGVAISFLVLAVGFSGFAISGFNVNHLDIAPRYASILMGISNGVGTLSGMVCPLIVGAMTRHKTREEWQNVFLIAALVHYSGVIFYGVFASGEKQEWADPENLSEEKCGIIDQDELAEEIELNHESFASPKKKMSYGATSQNCEVQKKEWKGQRGATLDEEELTSYQNEERNFSTIS
inactive: SARS-CoV-2 NSP10 = 0.0261 | SARS-CoV-2 NSP12 = 0.0828 | SARS-CoV-2 NSP13 = -0.0198 | SARS-CoV-2 NSP2 = -0.136 | SARS-CoV-2 ORF6 = -0.0947 | SARS-CoV-2 ORF9B -0.408 | SARS-CoV-2 S 0.0296

B2: LGALSL, Q3ZCW2 (protein)
chain: MAGSVADSDAVVKLDDGHLNNSLSSPVQADVYFPRLIVPFCGHIKGGMRPGKKVLVMGIVDLNPESFAISLTCGDSEDPPADVAIELKAVFTDRQLLRNSCISGERGEEQSAIPYFPFIPDQPFRVEILCEHPRFRVFVDGHQLFDFYHRIQTLSAIDTIKINGDLQITKLG
inactive: SARS-CoV-2 NSP10 = -0.0243 | SARS-CoV-2 NSP12 = -0.0485 | SARS-CoV-2 NSP13 = -0.0782 | SARS-CoV-2 NSP15 = -0.13 | SARS-CoV-2 NSP2 = -0.278 | SARS-CoV-2 NSP5 = 0.0523 | SARS-CoV-2 NSP8 = 0.0743 | SARS-CoV-2 ORF6 = -0.0609 | SARS-CoV-2 ORF7A 0.123 | SARS-CoV-2 ORF8 = 0.0583 | SARS-CoV-2 ORF9B -0.122 | SARS-CoV-2 S -0.504

B3: TCEB3B, Q8IYF1 (protein)
chain: MAAGSTTLHAVEKLQVRLATKTEPKKLEKYLQKLSALPMTADILAETGIRKTVKRLRKHQHVGDFARDLAARWKKLVLVDRNTRPGPQDPEESASRQRFGEALQDQEKAWGFPENATAPRSPSHSPEHRRTARRTPPGQQRPHPRSHSREPRAERKCPRIAPADSGRYRASPTRTAPLRMPEGPEPAAPGKQPGRGHTHAAQGGPLLCPGCQGQPQGKAVVSHSKGHKSSRQEKRPLCAQGDWHSPTLIREKSCGACLREETPRMPSWASARDRQPSDFKTDKEGGQAGSGQRVPALEEAPDSHQKRPQHSHSNKKRPSLDGRDPGNGTHGLSPEEKEQLSNDRETQEGKPPTAHLDRTSVSSLSEVEEVDMAEEFEQPTLSCEKYLTYDQLRKQKKKTGKSATTALGDKQRKANESKGTRESWDSAKKLPPVQESQSERLQAAGADSAGPKTVPSHVFSELWDLSEAWMQANYDPLSDSDSMTSQAKPEALSSPKFREEAAFPGRRVNAKMPVYSGSRPACQLQVPTLRQQCAQVLRNNPDALSDVGEVPYWVLEPVLEGWRPDQLYRRKKDNHALVRETDELRRNHCFQDFKEEKPQENKTWREQYLRLPDAPEQRLRVMTTNIRSARGNNPNGREAKMICFKSVAKTPYDTSRRQEKSAGDADPENGEIKPASKPAGSSHTPSSQSSSGGGRDSSSSILRWLPEKRANPCLSSSNEHAAPAAKTRKQAAKKVAPLMAKAIRDYKRRFSRR
inactive: SARS-CoV-2 NSP10 = -0.0454 | SARS-CoV-2 NSP12 = -0.217 | SARS-CoV-2 NSP13 = -0.225 | SARS-CoV-2 NSP2 = -0.281 | SARS-CoV-2 ORF3B -0.325 | SARS-CoV-2 ORF6 = -0.125 | SARS-CoV-2 ORF7A 0.129 | SARS-CoV-2 ORF7B -0.14 | SARS-CoV-2 ORF8 = 0.0266 | SARS-CoV-2 ORF9B -0.172 | [1] -0.145 | SARS-CoV-2 S -0.226

B4: NYX, Q9GZU5 (protein)
chain: MLVLLLHAVVLGLPSAWAVGACARACPAACACSTVERGCSVRCDRAGLLRVPAELPCEAVSIDLDRNGLRFLGERAFGTLPSLRRLSLRHNNLSFITPGAFKGLPRLAELRLAHNGDLRYLHARTFAALSRLRRLDLAACRLFSVPERLLAELPALRELAAFDNLFRRVPGALRGLANLTHAHLERGRIEAVASSSLQGLRRLRSLSLQANRVRAVHAGAFGDCGVLEHLLLNDNLLAELPADAFRGLRRLRTLNLGGNALDRVARAWFADLAELELLYLDRNSIAFVEEGAFQNLSGLLALHLNGNRLTVLAWVAFQPGFFLGRLFLFRNPWCCDCRLEWLRDWMEGSGRVTDVPCASPGSVAGLDLSQVTFGRSSDGLCVDPEELNLTTSSPGPSPEPAATTVSRFSSLLSKLLAPRVPVEEAANTTGGLANASLSDSLSSRGVGGAGRQPWFLLASCLLPSVAQHVVFGLQMD
inactive: SARS-CoV-2 NSP10 = -0.0146 | SARS-CoV-2 NSP12 = -0.031 | SARS-CoV-2 NSP13 = 0.0752 | SARS-CoV-2 NSP2 = -0.262 | SARS-CoV-2 NSP5 = -0.066 | SARS-CoV-2 NSP6 = 0.0347 | SARS-CoV-2 NSP7 = -0.189 | SARS-CoV-2 ORF3B -0.0415 | SARS-CoV-2 ORF6 = -0.0358 | SARS-CoV-2 ORF7A 0.027 | SARS-CoV-2 ORF7B -0.00517 | SARS-CoV-2 ORF8 = -0.0782 | SARS-CoV-2 ORF9B 0.00656 | SARS-CoV-2 S 0.0392

B5: MFSD5, Q6N075 (protein)
chain: MLVTAYLAFVGLLASCLGLELSRCRAKPPGRACSNPSFLRFQLDFYQVYFLALAADWLQAPYLYKLYQHYYFLEGQIAILYVCGLASTVLFGLVASSLVDWLGRKNSCVLFSLTYSLCCLTKLSQDYFVLLVGRALGGLSTALLFSAFEAWYIHEHVERHDFPAEWIPATFARAAFWNHVLAVVAGVAAEAVASWIGLGPVAPFVAAIPLLALAGALALRNWGENYDRQRAFSRTCAGGLRCLLSDRRVLLLGTIQALFESVIFIFVFLWTPVLDPHGAPLGIIFSSFMAASLLGSSLYRIATSKRYHLQPMHLLSLAVLIVVFSLFMLTFSTSPGQESPVESFIAFLLIELACGLYFPSMSFLRRKVIPETEQAGVLNWFRVPLHSLACLGLLVLHDSDRKTGTRNMFSICSAVMVMALLAVVGLFTVVRHDAELRVPSPTEEPYAPEL
inactive: SARS-CoV-2 NSP10 = 0.0341 | SARS-CoV-2 NSP12 = 0.0369 | SARS-CoV-2 NSP13 = -0.035 | SARS-CoV-2 NSP15 = 0.117 | SARS-CoV-2 NSP2 = -0.128 | SARS-CoV-2 NSP5 = -0.0621 | SARS-CoV-2 NSP7 = -0.0147 | SARS-CoV-2 NSP8 = -0.034 | SARS-CoV-2 ORF10 = -0.0114 | SARS-CoV-2 ORF3B 0.0703 | SARS-CoV-2 ORF7B 0.116 | SARS-CoV-2 ORF8 = 0.12 | SARS-CoV-2 ORF9B -0.085 | SARS-CoV-2 S -0.0619
